Data as given in paper PMC8233286.
Positions count from the first letter of the chain named. Results are given in words; binding and its absence hold for the method and conditions named. In cells and extracts the contact can be indirect. Some binding calls cover weakened binding; strength is not graded here. For part of these data: Tags and fused reporters may be left off the sequences shown.

Chains of the proteins cited; added tags and fusions are not shown. Residues count along the entry.
UniProt P78536, residues 215-824: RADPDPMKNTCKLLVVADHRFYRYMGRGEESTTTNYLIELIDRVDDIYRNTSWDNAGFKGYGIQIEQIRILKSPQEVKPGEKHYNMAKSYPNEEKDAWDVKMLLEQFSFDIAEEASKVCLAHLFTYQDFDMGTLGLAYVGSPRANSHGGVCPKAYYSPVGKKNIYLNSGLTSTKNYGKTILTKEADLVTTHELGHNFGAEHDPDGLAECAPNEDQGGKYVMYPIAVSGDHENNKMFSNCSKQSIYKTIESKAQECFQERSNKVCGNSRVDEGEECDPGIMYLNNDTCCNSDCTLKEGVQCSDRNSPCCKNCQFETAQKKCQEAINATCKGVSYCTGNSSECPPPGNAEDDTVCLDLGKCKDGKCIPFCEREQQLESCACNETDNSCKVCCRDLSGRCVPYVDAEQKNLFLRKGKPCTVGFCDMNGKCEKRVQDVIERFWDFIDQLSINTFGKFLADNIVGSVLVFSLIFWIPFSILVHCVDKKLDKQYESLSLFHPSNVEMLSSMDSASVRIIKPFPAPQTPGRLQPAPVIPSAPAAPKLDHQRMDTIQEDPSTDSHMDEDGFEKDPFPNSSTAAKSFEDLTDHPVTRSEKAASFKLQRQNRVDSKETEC

Experiments:
Assay in all cases: co-IP; HA-tagged iRhom construct as bait, anti-HA magnetic beads, cleared lysate of stably expressing HEK293 cells (50 mM Tris, 137 mM NaCl, 2 mM EDTA, 10 mM 1,10-phenanthroline, pH 7.5), 90 min, five washes; endogenous ADAM17 detected by western blot; also after cycloheximide treatment (pulse chase)
[1] = target: T1, miR2_L438P (murine iRhom2 with L438P in the first helix of the IRHD) (mouse) (UniProt Q80WQ6)
T1 sequence: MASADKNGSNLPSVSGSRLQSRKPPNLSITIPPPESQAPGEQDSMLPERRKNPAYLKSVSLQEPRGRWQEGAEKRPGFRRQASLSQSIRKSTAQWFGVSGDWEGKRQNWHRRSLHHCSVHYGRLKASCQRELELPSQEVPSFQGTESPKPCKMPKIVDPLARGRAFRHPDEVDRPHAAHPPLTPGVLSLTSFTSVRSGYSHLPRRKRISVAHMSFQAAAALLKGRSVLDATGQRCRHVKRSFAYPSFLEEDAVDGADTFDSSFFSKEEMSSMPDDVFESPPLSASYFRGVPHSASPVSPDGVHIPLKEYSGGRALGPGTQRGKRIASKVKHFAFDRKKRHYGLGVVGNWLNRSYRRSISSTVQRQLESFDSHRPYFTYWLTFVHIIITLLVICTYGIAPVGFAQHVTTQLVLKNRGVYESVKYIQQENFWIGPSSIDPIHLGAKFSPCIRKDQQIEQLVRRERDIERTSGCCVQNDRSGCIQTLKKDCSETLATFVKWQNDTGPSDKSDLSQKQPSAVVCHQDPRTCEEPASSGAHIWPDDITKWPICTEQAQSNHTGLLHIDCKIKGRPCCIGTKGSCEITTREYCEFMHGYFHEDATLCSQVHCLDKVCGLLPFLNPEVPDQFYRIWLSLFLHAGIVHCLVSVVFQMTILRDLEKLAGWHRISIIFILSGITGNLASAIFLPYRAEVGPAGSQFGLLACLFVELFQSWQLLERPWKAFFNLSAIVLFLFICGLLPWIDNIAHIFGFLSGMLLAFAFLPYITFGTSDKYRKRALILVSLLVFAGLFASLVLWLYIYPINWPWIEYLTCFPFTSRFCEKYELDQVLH

[2] = target: T2, miR2_W538S (murine iRhom2 with W538S in iCERES), in HEK293 cells (mouse) (UniProt Q80WQ6)
T2 sequence: T1 sequence with P438L, W538S

[3] = target: T3, murine wt_iRhom2 (wild-type) construct with 3xHA tag, in HEK293 cells (mouse) (UniProt Q80WQ6)
T3 sequence: T1 sequence with P438L

Q: What does the source list for “mature ADAM17 (mADAM17), endogenous in HEK293 cells (from UniProt P78536 215-824) (enzyme)”?
A: binding [1]: no binding; binding [2]: binds; binding [3]: binds
